B1: ENSG00000100401:stop:overlap|stop_codon|ENSG00000100401|stop_codon|NA|stop_codon (ssRNA)
RNA: GGGAGUUCUACAGUCCGACGAUCGCGCCCUGGAAUCCUGCUCCUUCGCCCGCCACAGUCUGCUGCAGACGCUGUACAAGGUCUAGACUCAAAGCCUCUCCCAUCCCUUGGCCUGGACCAGUGAGCUGGGGAGGGACUCGGAUGCAACAGAGGAUUGAGCAUCA
B2: chr1:162783069:162783171:+|3pUTR|ENSG00000162733|unk|FALSE|unique (ssRNA)
RNA: GGGAGUUCUACAGUCCGACGAUCUGAAAGUAGUUCAAAUUUGAAUUAGAAGAAUGAAGCUAGGACUUAUUUGGAAAAGGAGAUAGAAAAAAAAUGAUCAGAAACUGUGGGGCCUUAUUACCUUUGCAGUAAGUUAUCUUCUUCCAACAGAGGAUUGAGCAUCA
B3: chrX:65741840:65741941:+|3pUTR|ENSG00000147065|msi1|total|mutant (ssRNA)
RNA: GGGAGUUCUACAGUCCGACGAUCAAAUUGUUUUUGGAGGGGUUUAUGCUCAAUCCAUGUUCUAUUUCAGUGCCAAUAAAAUUCCGGAAGACUUCACAGUGACUCAAUCGUUCUUUGUGGUAUGAGUGGGCCGCUGUAAGAUAUCAACAGAGGAUUGAGCAUCA
B4: chrX:52062232:52062664:-|CDS|ENSG00000187243|control|control|control (ssRNA)
RNA: GGGAGUUCUACAGUCCGACGAUCGGCCACGUGGAGAGCUGGCGUCAGCAGUGGCACCAAUGGAGGGGCCAGCACCAGCGUCCUAGAUGGCCCCAGCACCAGCUCCACCAUCCGGACCAGAAAUGCUGCCAGAGCUGGCGCCAGCAACAGAGGAUUGAGCAUCA
B5: chr3:170361105:170361226:+|CDS|ENSG00000136603|unk|FALSE|bound_elsewhere (ssRNA)
RNA: GGGAGUUCUACAGUCCGACGAUCAAGCUCAUUGGCCCAGUUAAAGGAAACUGGCAGUGCCUUUGAAGUGGAGCAUGAAUGCCUAGGCAAAUGUCAGGGUUUAUUUGCACCCCAGUUUUAUGUUCAGCCUGAUGCUCCGUGUAUCAACAGAGGAUUGAGCAUCA
B6: chr22:39520512:39520623:+|5pUTR|ENSG00000128272|unk|FALSE|bound_elsewhere (ssRNA)
RNA: GGGAGUUCUACAGUCCGACGAUCUCUAUAAAGGGCCGGCGGGCGGCCACGGCAGCCAUUUCUACUUUGCCCGCCCACAGAUGUAGUUUUCUCUGCGCGUGUGCGUUUUCCCUCCUCCCCGCCCUCAGGGUCCACGGCCACCAUCAACAGAGGAUUGAGCAUCA
B7: chr7:101137467:101137738:+|3pUTR|ENSG00000106366|msi1|total|mutant (ssRNA)
RNA: GGGAGUUCUACAGUCCGACGAUCGUUAAAAGAUGGUAAACCAGAUCUGUCUCCAAGACCUUGGCCUCUCCUUGGAGGACCUUCCGGUCAAACUCCCCCGUCUCCACCUGAGACCCUGGGAGAGAAGUUUGAAGCACAACUCCCCAACAGAGGAUUGAGCAUCA
B8: chr3:73066602:73066703:+|3pUTR|ENSG00000163605|unk|FALSE|unique (ssRNA)
RNA: GGGAGUUCUACAGUCCGACGAUCACUAUUUUGUAGAAUGAAUGUUUAUGAAGCUGAUAUGAGACCAUCUCAGAAGAACCAAGUAGGUUCCUUGACCUUUUGCUUGCUUUUCUGAACAUUGUGAAUAUUACACAUGUCUUUCUACAACAGAGGAUUGAGCAUCA
B9: ENSG00000070961:be:win_3351|CDS|ENSG00000070961|bound_else_gene|NA|bound_elsewhere_windowed (ssRNA)
RNA: GGGAGUUCUACAGUCCGACGAUCGAUUCGAGUGGUGAAUGCAUUUCGUAGUUCUUUAUAUGAAGGGUUAGAAAAACCGGAAUCAAGAAGUUCGAUUCACAACUUUAUGACACAUCCUGAGUUUAGGAUAGAAGAUUCAGAGCCCAACAGAGGAUUGAGCAUCA
B10: ENSG00000070961:be:win_3751|3pUTR|ENSG00000070961|bound_else_gene|NA|bound_elsewhere_windowed (ssRNA)
RNA: GGGAGUUCUACAGUCCGACGAUCUAUUCUUGUCUUUGGACUUCAACAGAAGACACACUUGUACGAAUGUAGAUUUAUUUUUUUAAAAAAAAAAAAGCAAAGCUUUCUGCCAGACUGAGGGUGCUUUUUGGGGGGUGGGAGAAACAACAGAGGAUUGAGCAUCA
B11: chr12:120764159:120764260:-|3pUTR|ENSG00000157837|msi1|FALSE|unique (ssRNA)
RNA: GGGAGUUCUACAGUCCGACGAUCACACACACAUAGAUAUAUAUGAAUAAACAAAAAUGAAAUCCUGCUAAGAUCACGCUGUGUAGCUGACAGGGGCUUGCUGUCGUUUUGAGCAUGUCGAGCAGUUUACUGUGGCUUCCUUGUCAACAGAGGAUUGAGCAUCA
B12: ENSG00000136451:be:win_1251|CDS|ENSG00000136451|bound_else_gene|NA|bound_elsewhere_windowed (ssRNA)
RNA: GGGAGUUCUACAGUCCGACGAUCAGUGGCAGCUGCAAUGAGCAUGAGAAGUCCAGUAAAUGUUUCAAGUGCAGUUAACAUAACCAGCCCAAUGAACAUAGGGCAUCCUGUAACUAUAACCAGUCCAUUAUCCAUGACCUCUCCCAACAGAGGAUUGAGCAUCA
B13: ENSG00000168936:stop:overlap|stop_codon|ENSG00000168936|stop_codon|NA|stop_codon (ssRNA)
RNA: GGGAGUUCUACAGUCCGACGAUCGUGUGGCCAGCACCAACCCUGCUGUGCAGGCCUUUGACAUCUGGAGCUGGAGGCCUGCAUAGGCUGCAUGCAGACACGUGCCAGCGUGAAGCUGGUGAAGACCUGCCAGGAGGCAGCCACCAACAGAGGAUUGAGCAUCA
B14: chrX:53432280:53432385:-|CDS|ENSG00000072506|unk|total|mutant (ssRNA)
RNA: GGGAGUUCUACAGUCCGACGAUCUGAGAAGGAUGUGCAAACAGCUCUGGCUCCCGCAAAAGGAAAGUUUGGCCGUGUGGAUGCCGCUGUCAACUGUGCAGGCAUCGCGGUGGCCCGCAAGACGUACAACUUAAAGAAGGGCCACAACAGAGGAUUGAGCAUCA
B15: chr2:135840511:135840612:-|3pUTR|ENSG00000076003|msi1|FALSE|unique (ssRNA)
RNA: GGGAGUUCUACAGUCCGACGAUCGCUUCAGCACUUCCUUUGGUGUGUUUCCUGUCCCAGUGAAGUUGGAACCAAAUAAUGUGUAGUCUCUAUAACCAAUACCUUUGUUUUCAUGUGUAAGAAAAGGCCCAUUACUUUUAAGGUCAACAGAGGAUUGAGCAUCA
B16: chr6:36232219:36232320:+|3pUTR|ENSG00000096070|unk|FALSE|unique (ssRNA)
RNA: GGGAGUUCUACAGUCCGACGAUCGCUAGGGAAGGACAUGGUGUAUAUAAUUGUAAAAUACUGUUCUAAAUUAUUCAGGCCUAUAGUUUCCAUUACUGGAGUCCUCCAUUGUGUGGCCACACAGUGUCGUUGAUUUAAAGGAGCCAACAGAGGAUUGAGCAUCA
B17: chr11:134382709:134383006:-|CDS|ENSG00000109956|control|control|control (ssRNA)
RNA: GGGAGUUCUACAGUCCGACGAUCCGGGGCAGGGAAGGUGGUCGGCUGGAAGACGGUGUUUGACCCCCACCGGCCAUUUGCAAUAGACAUGGCUGGAUUUGCCGUCAACCUGCGGCUCAUUCUGCAGCGAAGCCAGGCCUACUUCAACAGAGGAUUGAGCAUCA
B18: chr5:173316791:173316892:-|3pUTR|ENSG00000113739|msi1|FALSE|unique (ssRNA)
RNA: GGGAGUUCUACAGUCCGACGAUCGGAAACCUUAUACCCAGAGGAAAAUACACACCUGGGGAGUACAUUUGACAAAUUUCCCUUAGGAUUUCGUUAUCUCACCUUGACCCUCAGCCAAGAUUGGUAAAGCUGCGUCCUGGCGAUCAACAGAGGAUUGAGCAUCA
B19: chr7:139028693:139028797:-|CDS|ENSG00000146858|unk|FALSE|unique (ssRNA)
RNA: GGGAGUUCUACAGUCCGACGAUCUUUCAGAUAAUCUCCACCUACAAGCAUAUGAAGCUGCACAAGAUGCUUGAAAAUACAGGUAGGAAUAUCCAAGAAGGACAGAGAAGUAUCAGCGAUAUGGUUUUGCGAUGCUUCACUGUGCAACAGAGGAUUGAGCAUCA
B20: chr1:62864655:62864756:+|3pUTR|ENSG00000125703|unk|FALSE|unique (ssRNA)
RNA: GGGAGUUCUACAGUCCGACGAUCUUUGUUAACUGUGAUAUGCAUACACUUAUAUAAGCAGAAUUAUGAGUUAAAGUAAUACUUAGCAAUAUGAUUUUAUAAUGGCUCCUCAUUAUGCUUGCUGUUGAACCUUUUAUGAGGAGUCAACAGAGGAUUGAGCAUCA
B21: chr1:167421552:167421653:+|3pUTR|ENSG00000143190|unk|FALSE|unique (ssRNA)
RNA: GGGAGUUCUACAGUCCGACGAUCUUUUCUUCUAACCUUAUUCAUUAAGUAGUUCCUUGUUUUGGCCCUUCUACUCUUGGCCUUAGCUAAAAGCAGUAAAUGUGAGUGAAUUUUAUGUUGAUUAUGUCACCUGGAUCUCCUUUCCAACAGAGGAUUGAGCAUCA
B22: chr8:52110837:52113338:-|three_prime_utr|ENSG00000147488|control|control|control (ssRNA)
RNA: GGGAGUUCUACAGUCCGACGAUCCCCCGGAAUGCAAAGCUCUACUGGAAAGUAUCAAACAGGCAGUGAAGGGUAUCCAUGUGUAGGAUCACAGCGCUGCCGGGCAACAGAAGUUACCAACAGCAGUAAACUCCAGAUGGAUCUCAACAGAGGAUUGAGCAUCA

The list shows a part of the results.

This experiment has as its target MSI1 full-length (mouse, UniProt Q61474 1-362). Put plainly: nsRBNS (natural sequence RNA bind-n-seq); RBNS binding buffer (assumed for nsRBNS): 25 mM Tris pH 7.5, 150 mM KCl, 3 mM MgCl2, 0.01% Triton X-100, 500 ug/ml BSA, 20 U/ml SUPERase-In, 4 C; UNK is unkempt and MSI1 is Musashi-1; names of the RNAs are library labels; protein concentration not given here; high values mean tight binding.
Sequence of UniProt Q61474 (Q61474 whole entry): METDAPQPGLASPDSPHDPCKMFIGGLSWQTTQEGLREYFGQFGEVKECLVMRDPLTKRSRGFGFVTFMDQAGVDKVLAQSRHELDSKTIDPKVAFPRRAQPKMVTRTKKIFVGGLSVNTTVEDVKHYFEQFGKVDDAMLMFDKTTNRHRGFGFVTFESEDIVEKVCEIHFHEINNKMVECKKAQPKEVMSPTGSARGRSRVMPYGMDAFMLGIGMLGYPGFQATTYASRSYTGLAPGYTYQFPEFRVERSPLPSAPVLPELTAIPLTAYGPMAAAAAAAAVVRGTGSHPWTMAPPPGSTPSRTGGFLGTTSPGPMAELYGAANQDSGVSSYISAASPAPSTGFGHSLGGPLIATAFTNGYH
Molecule B1 had a binding signal of 0.362 enrichment R.
The molecule B2 displayed a binding signal of 1.62 enrichment R.
The result for B3 reads 0.205 enrichment R.
Molecule B4 returned a binding signal of 0.399 enrichment R.
B5 showed a binding signal of 0.332 enrichment R.
As for B6, the binding signal is 0.692 enrichment R.
Molecule B7 displayed a binding signal of 0.337 enrichment R.
With B8, the binding signal turned out to be 0.282 enrichment R.
In turn, B9 returned a binding signal of 0.984 enrichment R.
In turn, B10 had a binding signal of 0.889 enrichment R.
In turn, B11 registered a binding signal of 1.84 enrichment R.
Molecule B12 gave a binding signal of 0.559 enrichment R.
For B13, the binding signal was 3.64 enrichment R.
Consider B14, for which the binding signal came to 0.359 enrichment R.
B15: the binding signal worked out at 0.858 enrichment R.
B16: the binding signal came out at 1.86 enrichment R.
In the case of B17, the binding signal was determined as 0.563 enrichment R.
Molecule B18 came in with a binding signal of 0.381 enrichment R.
Turning to B19, the binding signal was found to be 0.218 enrichment R.
B20: the binding signal came out at 0.957 enrichment R.
The result for B21 reads 3.1 enrichment R; that for B22, 0.319 enrichment R.

The record behind these values is article PMC12136788.
